The supplement of paper PMC4604168 (melanoma cell lines)
The list shows a part of the results. Most values come without repeats; read them as rough.

Tests used:
Experiment in all cases: cell count relative to DMSO control; melanoma cells; higher = more viable cells
Settings in all cases: library dose: standard library concentration; 72 h
[1] = system: A101D
[2] = system: A2058
[3] = system: A375
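Further: cells treated in 1,536-well plates, then fixed and DAPI-stained, with nuclei counted from automated high-throughput microscope images.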

| Structure (SMILES) | cell count [1] [%] | cell count [2] [%] | cell count [3] [%] |
| --- | --- | --- | --- |
| CC[C@]1(O)C[C@H]2CN(CCc3c([nH]c4ccccc34)[C@@](C(=O)OC)(c3cc4c(cc3OC)N(C=O)[C@H]3[C@@](O)(C(=O)OC)[C@H](OC(C)=O)[C@]5(CC)C=CCN6CC[C@]43[C@@H]65)C2)C1 [vincristine] + COC(=O)c1sccc1S(=O)(=O)Nc1ccc(Nc2ccccc2)cc1OC [GSK0660] (first compound 0.0005 µM, partner dose 5 µM) | 37.2 | 6.77 | 80.2 |
| Cc1cc(Nc2cc(N3CCN(C)CC3)nc(Sc3ccc(NC(=O)C4CC4)cc3)n2)n[nH]1 [Tozasertib] + C[C@]1(O)C[C@@H](c2nc(-c3ccc4ccc(-c5ccccc5)nc4c3)c3c(N)nccn32)C1 [OSI906] (first compound 0.03 µM, partner dose 2 µM) | 83.7 | 79.1 | 74.3 |
| N#CC[C@H](C1CCCC1)n1cc(-c2ncnc3[nH]ccc23)cn1 [ruxolitinib] + C=CCNC1=C2C[C@@H](C)C[C@H](OC)[C@H](O)[C@@H](C)/C=C(\C)[C@H](OC(N)=O)[C@@H](OC)/C=C\C=C(/C)C(=O)NC(=CC1=O)C2=O [Tanespimycin] (first compound 5 µM, partner dose 0.01 µM) | 77.7 | 56.8 | 170 |
| N#CC[C@H](C1CCCC1)n1cc(-c2ncnc3[nH]ccc23)cn1 [ruxolitinib] + CC1(C)NC(=O)N(c2ccc([N+](=O)[O-])c(C(F)(F)F)c2)C1=O [nilutamide] (first compound 5 µM, partner dose 5 µM) | 88.3 | 71.1 | 106 |
| CC[C@]1(O)C[C@H]2CN(CCc3c([nH]c4ccccc34)[C@@](C(=O)OC)(c3cc4c(cc3OC)N(C=O)[C@H]3[C@@](O)(C(=O)OC)[C@H](OC(C)=O)[C@]5(CC)C=CCN6CC[C@]43[C@@H]65)C2)C1 [vincristine] + Cn1c(Nc2ccc(C(F)(F)F)cc2)nc2cc(Oc3ccnc(-c4ncc(C(F)(F)F)[nH]4)c3)ccc21 [CHIR265] (first compound 0.0005 µM, partner dose 0.4 µM) | 50 | 33.4 | 81.8 |
| Cc1cc(Nc2cc(N3CCN(C)CC3)nc(Sc3ccc(NC(=O)C4CC4)cc3)n2)n[nH]1 [Tozasertib] + CCCS(=O)(=O)Nc1ccc(F)c(C(=O)c2c[nH]c3ncc(Cl)cc23)c1F [PLX4720] (first compound 0.03 µM, partner dose 0.4 µM) | 78.3 | 84.8 | 97.2 |
| N#CC[C@H](C1CCCC1)n1cc(-c2ncnc3[nH]ccc23)cn1 [ruxolitinib] + Nc1nc(F)nc2c1ncn2[C@@H]1O[C@H](CO)[C@@H](O)[C@@H]1O [fludarabine] (first compound 5 µM, partner dose 1 µM) | 88.7 | 60.5 | 47.7 |
| Cc1cc(Nc2cc(N3CCN(C)CC3)nc(Sc3ccc(NC(=O)C4CC4)cc3)n2)n[nH]1 [Tozasertib] + O=C(O)[C@@H]1[O][Sb](=[O])([O][Sb]2(=[O])[O][C@H]([C@H](O)CO)[C@H](O)[C@H](C(=O)O)[O]2)[O][C@H]([C@H](O)CO)[C@@H]1O [stibogluconate] (first compound 0.03 µM, partner dose 10 µM) | 95.2 | 58.6 | 95.5 |
| N#CC[C@H](C1CCCC1)n1cc(-c2ncnc3[nH]ccc23)cn1 [ruxolitinib] + CC(=O)O[C@@]12CO[C@@H]1C[C@H](O)[C@@]1(C)C(=O)[C@H](O)C3=C(C)[C@@H](OC(=O)[C@H](O)[C@@H](NC(=O)OC(C)(C)C)c4ccccc4)C[C@@](O)([C@@H](OC(=O)c4ccccc4)[C@H]21)C3(C)C [Docetaxel] (first compound 5 µM, partner dose 0.0005 µM) | 51.4 | 7.87 | 73.6 |
| CC[C@]1(O)C[C@H]2CN(CCc3c([nH]c4ccccc34)[C@@](C(=O)OC)(c3cc4c(cc3OC)N(C=O)[C@H]3[C@@](O)(C(=O)OC)[C@H](OC(C)=O)[C@]5(CC)C=CCN6CC[C@]43[C@@H]65)C2)C1 [vincristine] + Nc1ccn([C@@H]2O[C@H](CO)[C@@H](O)C2(F)F)c(=O)n1 [gemcitabine] (first compound 0.0005 µM, partner dose 0.002 µM) | 51 | 67.6 | 92.2 |
| Cc1cc(Nc2cc(N3CCN(C)CC3)nc(Sc3ccc(NC(=O)C4CC4)cc3)n2)n[nH]1 [Tozasertib] + O=C(Nc1cccc(Cl)c1)Nc1ncc(CCNc2ncnc3ccsc23)s1 [SNS314] (first compound 0.03 µM, partner dose 0.004 µM) | 68.3 | 23 | 67.4 |
| Cc1cc(Nc2cc(N3CCN(C)CC3)nc(Sc3ccc(NC(=O)C4CC4)cc3)n2)n[nH]1 [Tozasertib] + Cc1cc(Nc2cc(N3CCN(C)CC3)nc(/C=C/c3ccccc3)n2)n[nH]1 [ENMD2076] (first compound 0.03 µM, partner dose 0.2 µM) | 59.5 | 63.2 | 81.1 |
| CC[C@]1(O)C[C@H]2CN(CCc3c([nH]c4ccccc34)[C@@](C(=O)OC)(c3cc4c(cc3OC)N(C=O)[C@H]3[C@@](O)(C(=O)OC)[C@H](OC(C)=O)[C@]5(CC)C=CCN6CC[C@]43[C@@H]65)C2)C1 [vincristine] + CC1(C)CCC(c2ccc(Cl)cc2)=C(CN2CCN(c3ccc(C(=O)NS(=O)(=O)c4ccc(N[C@H](CCN5CCOCC5)CSc5ccccc5)c(S(=O)(=O)C(F)(F)F)c4)cc3)CC2)C1 [ABT263] (first compound 0.0005 µM, partner dose 2 µM) | 50.8 | 97.5 | 66.8 |
| Cc1cc(Nc2cc(N3CCN(C)CC3)nc(Sc3ccc(NC(=O)C4CC4)cc3)n2)n[nH]1 [Tozasertib] + CC[C@]1(O)C[C@H]2CN(CCc3c([nH]c4ccccc34)[C@@](C(=O)OC)(c3cc4c(cc3OC)N(C=O)[C@H]3[C@@](O)(C(=O)OC)[C@H](OC(C)=O)[C@]5(CC)C=CCN6CC[C@]43[C@@H]65)C2)C1 [vincristine] (first compound 0.03 µM, partner dose 0.0005 µM) | 67.3 | 115 | 101 |
| CC[C@]1(O)C[C@H]2CN(CCc3c([nH]c4ccccc34)[C@@](C(=O)OC)(c3cc4c(cc3OC)N(C=O)[C@H]3[C@@](O)(C(=O)OC)[C@H](OC(C)=O)[C@]5(CC)C=CCN6CC[C@]43[C@@H]65)C2)C1 [vincristine] + O=C(/C=C/c1cccnc1)NCCCCC1CCN(C(=O)c2ccccc2)CC1 [FK866] (first compound 0.0005 µM, partner dose 0.05 µM) | 60.8 | 85.2 | 101 |
| Cc1cc(Nc2cc(N3CCN(C)CC3)nc(Sc3ccc(NC(=O)C4CC4)cc3)n2)n[nH]1 [Tozasertib] + O=C(Nc1cc(C(F)(F)F)cc(C(F)(F)F)c1)c1cc(Cl)ccc1O [IMD0354] (first compound 0.03 µM, partner dose 0.08 µM) | 67.7 | 85.1 | 70 |
| Cc1cc(Nc2cc(N3CCN(C)CC3)nc(Sc3ccc(NC(=O)C4CC4)cc3)n2)n[nH]1 [Tozasertib] + COc1cc2c(Oc3ccc4[nH]c(C)cc4c3F)ncnc2cc1OCCCN1CCCC1 [cediranib] (first compound 0.03 µM, partner dose 2 µM) | 82.3 | 72.9 | 111 |
| Cc1cc(Nc2cc(N3CCN(C)CC3)nc(Sc3ccc(NC(=O)C4CC4)cc3)n2)n[nH]1 [Tozasertib] + OCc1c[nH]c2ccccc12 [Indole-3-carbinol] (first compound 0.03 µM, partner dose 4 µM) | 85.5 | 76.6 | 94.2 |
| Cc1cc(Nc2cc(N3CCN(C)CC3)nc(Sc3ccc(NC(=O)C4CC4)cc3)n2)n[nH]1 [Tozasertib] + CN1CCN(c2ccc3nc(-c4c(N)c5c(F)cccc5[nH]c4=O)[nH]c3c2)CC1 [Dovitinib] (first compound 0.03 µM, partner dose 0.5 µM) | 73.2 | 26.6 | 74.1 |
| N#CC[C@H](C1CCCC1)n1cc(-c2ncnc3[nH]ccc23)cn1 [ruxolitinib] + CN(NC(=O)CC(=O)NN(C)C(=S)c1ccccc1)C(=S)c1ccccc1 [STA4783] (first compound 5 µM, partner dose 0.03 µM) | 77.5 | 5.33 | 145 |
| CC[C@]1(O)C[C@H]2CN(CCc3c([nH]c4ccccc34)[C@@](C(=O)OC)(c3cc4c(cc3OC)N(C=O)[C@H]3[C@@](O)(C(=O)OC)[C@H](OC(C)=O)[C@]5(CC)C=CCN6CC[C@]43[C@@H]65)C2)C1 [vincristine] + OCc1c[nH]c2ccccc12 [Indole-3-carbinol] (first compound 0.0005 µM, partner dose 4 µM) | 71.6 | 77.3 | 99 |
| Cc1cc(Nc2cc(N3CCN(C)CC3)nc(Sc3ccc(NC(=O)C4CC4)cc3)n2)n[nH]1 [Tozasertib] + Cn1cncc1[C@@](N)(c1ccc(Cl)cc1)c1ccc2c(c1)c(-c1cccc(Cl)c1)cc(=O)n2C [tipifarnib] (first compound 0.03 µM, partner dose 0.05 µM) | 94.8 | 85.8 | 110 |
| CC[C@]1(O)C[C@H]2CN(CCc3c([nH]c4ccccc34)[C@@](C(=O)OC)(c3cc4c(cc3OC)N(C=O)[C@H]3[C@@](O)(C(=O)OC)[C@H](OC(C)=O)[C@]5(CC)C=CCN6CC[C@]43[C@@H]65)C2)C1 [vincristine] + Clc1ccc(Nc2nnc(Cc3ccncc3)c3ccccc23)cc1 [vatalanib] (first compound 0.0005 µM, partner dose 10 µM) | 29.5 | 12.9 | 58.1 |
